The full ranking holds about 33,000 sequences; the median of “E-score (-0.5 to 0.5)” is about -0.011, and the highest 2% start at about 0.28. The list shows a part of the results.
Target: T1, Gcr1 (UniProt P07261)
T1 sequence: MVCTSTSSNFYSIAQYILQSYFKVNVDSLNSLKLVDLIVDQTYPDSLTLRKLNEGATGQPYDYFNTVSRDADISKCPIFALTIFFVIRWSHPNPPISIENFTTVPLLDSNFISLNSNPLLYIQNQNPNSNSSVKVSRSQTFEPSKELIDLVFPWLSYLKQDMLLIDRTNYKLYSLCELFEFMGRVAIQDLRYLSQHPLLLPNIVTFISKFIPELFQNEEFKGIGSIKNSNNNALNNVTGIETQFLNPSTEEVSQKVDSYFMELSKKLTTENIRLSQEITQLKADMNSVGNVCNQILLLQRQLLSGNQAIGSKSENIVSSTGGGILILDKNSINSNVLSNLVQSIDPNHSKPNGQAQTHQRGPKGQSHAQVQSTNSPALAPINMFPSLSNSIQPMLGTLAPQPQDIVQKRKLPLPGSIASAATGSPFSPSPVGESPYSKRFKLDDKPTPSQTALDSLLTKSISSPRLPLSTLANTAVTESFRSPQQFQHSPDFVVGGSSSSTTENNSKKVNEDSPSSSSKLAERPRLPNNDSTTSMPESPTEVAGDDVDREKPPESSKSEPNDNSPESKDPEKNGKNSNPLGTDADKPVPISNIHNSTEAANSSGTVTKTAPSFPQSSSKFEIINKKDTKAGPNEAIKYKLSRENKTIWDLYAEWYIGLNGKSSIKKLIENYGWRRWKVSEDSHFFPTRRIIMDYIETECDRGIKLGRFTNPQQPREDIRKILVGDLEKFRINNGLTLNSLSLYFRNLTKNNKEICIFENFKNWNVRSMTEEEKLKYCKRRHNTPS
Test: PBM E-score (8-mer binding enrichment) (E-score (-0.5 to 0.5)); higher = stronger / more preferred TF binding; most listed sequences are background and not binding sites
Details: protein concentration: 100 nM; construct: GST-full length
Procedure, shortened: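 The E-score, a modified Wilcoxon-Mann-Whitney statistic, was computed by the Universal PBM Analysis Suite for every ungapped eight-base word pooled with its reverse complement. Scans behind it were normalised with masliner after bound GST-tagged yeast transcription factors were detected with fluorescent anti-GST. The proteins, at about 100-200 nM, had been applied to universal all-10-mer Agilent arrays made double-stranded by primer extension.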

Sequence | PBM E-score
AGTGAGCG | -0.228
GTAAATAC | 0.0283
AAGCAAGC | -0.116
GGAGTGCA | 0.00026
TTGCGAAA | 0.129
AAGTTTCC | -0.0273
AATGTGCA | 0.0217
AGTGTAGC | 0.147
GCCTGCAA | -0.187
AAGGGGTG | -0.0311
ACTTCGAT | 0.0644
CGCTACTC | -0.00841
CTAGAGGA | 0.0502
GTAGTCAC | -0.13
AGAGCTAG | -0.154
ATACGATC | 0.108
ACAGCAAT | -0.061
GAGCAGCA | 0.0693
CCGTTCCC | -0.017
AAAGAATC | 0.137
GATCTGCC | -0.014
GAGGCGTA | -0.197
CGTGCTAG | -0.199
AGTAGCTG | 0.255
AACTATAT | 0.0836

Sequence | PBM E-score
GCGATTAA | 0.0139
CGTGTCAA | -0.109
CAGTCCCG | -0.103
AGCTTGAA | -0.218
GAACTAAA | 0.105
TCAGACCA | -0.0609
ACCATTTG | 0.0682
AAGATTTC | 0.0455
ATCATCTG | 0.067
GGAGCGCA | -0.066
CAAGTTAC | 0.0552
CCTTTCAG | -0.117
CCTTATGA | 0.0451
CAATACCG | -0.0222
CGTGAGCA | 0.0225
GACAGTGC | -0.132
ACTTCTCA | 0.0468
AGTGCGTA | -0.143
ACCACGTA | -0.12
GAAGGATC | -0.104
CGAGGAAG | -0.00784
ATAGGCGG | 0.00295
GGACAGAC | -0.197
CGCGACAC | -0.064
ATTTTACC | 0.0326

Sequence | PBM E-score
CGCTTCCA | 0.351
GTTTGGAA | 0.202
CACCACCA | 0.14
AAATGCGG | -0.032
CCTTAACG | -0.0277
ACATGCGT | -0.107
GCCACATA | -0.0272
CGCTTACC | -0.244
GTTTGAAA | 0.111
ACAATGTG | 0.00324
AAAATGAA | 0.0635
ATCAAGCG | -0.0474
CATTTCGC | -0.0546
CTTTGCGC | -0.136
CCATTGGA | -0.00321
GATGTGTA | -0.107
CGACGGAC | -0.205
CGGGATGC | 0.332
CGTGATGC | -0.0264
CCGACGGC | -0.164
GTTACTCA | -0.127
CTTGCGCA | 0.128
AGATCTTA | 0.0357
GCGCATTA | 0.0132
AATAAGCG | 0.0368

Sequence | PBM E-score
CCCGTAGC | 0.149
CTACACAC | -0.0391
CAACGTTA | -0.0515
GACGGGGC | 0.144
AATTCACA | -0.183
TTACTAAA | 0.202
CCTAGGCG | 0.0568
CGAAGTGC | -0.114
GTATTCCA | 0.261
ACATGCTG | -0.106
ATACTATG | -0.0271
ACCCATTC | -0.0565
GGGGGCCA | 0.258
ATTACTAA | 0.132
CGTGCAGC | -0.0937
CATGATTC | -0.0693
ACACAACC | -0.006
GTCAGAAA | 0.0237
AATAAAAC | 0.0398
GGCAAGTA | -0.0205
ATAATGGA | 0.196
GACCCGTC | -0.0902
CGGGGGGA | -0.246
AACATATA | -0.0814
AGGGCTGG | 0.0552

Sequence | PBM E-score
CTAAGTTC | -0.0278
AGAGTTCA | -0.267
CATTTGGA | 0.172
AGACCGCA | 0.0808
ACTGCGAT | -0.167
AATGTTAA | 0.111
CAAGCAAG | -0.0879
CACCGACC | -0.0723
TTGCAAAA | 0.185
AATGTCTA | -0.0034
GGAGATCC | 0.161
TCAAGGGA | -0.231
AGGCGCGA | 0.138
GCTTCCCC | 0.341
ATCAACCC | 0.0738
GTCACTAA | 0.107
ATTACCGC | 0.146
GGCCTCGA | -0.106
CCTGGCAA | -0.0274
AGCTCCAA | 0.128
AACCTACT | 0.0293
CTCGGAGC | -0.0102
ACCCAGAG | 0.141
CCCGCCAG | -0.0181
CTACGACA | 0.103

Sequence | PBM E-score
CGTTAGGC | -0.0314
CAAAAAGA | 0.209
AAGGGTGC | 0.155
TAGTCTCA | -0.205
ACCCCACA | 0.0881
CATTTCCG | -0.0131
CGGTCCGA | -0.00907
AAGTGTAG | 0.0971
ACTCTTAC | -0.00531
AATTGAAG | 0.0303
AGAAGCGC | 0.221
ACTAGGAG | 0.123
AATAGGAG | 0.217
GACGCAGC | 0.138
TAGAAAGA | 0.0699
AGATTTGA | 0.0916
GCGCCCTA | 0.319
GGGGTTCA | -0.157
AGTCCAAC | -0.171
ATCTTTCA | 0.154
AGTCTTGC | -0.12
AATAAGTA | 0.206
GCCCAGAC | 0.0992
ATAGTGAT | 0.074
CCTGAAAA | 0.0934

Sequence | PBM E-score
CCGGTCGC | 0.0472
AAAAAGTG | 0.16
ACAAGCAC | 0.0877
GTGTACGA | -0.0709
CTGGTTCA | -0.192
AGGGGACG | 0.141
CATACCCA | -0.0403
AAGCCCTT | -0.0429
GCCGTGGA | 0.0942
CATTTATA | -0.0203
AGAACAAC | -0.167
CGACACTA | -0.00768
TACCGGCA | 0.173
CAGTAGGA | -0.118
AGGGTTGA | -0.0417
AAATCCTT | -0.171
CACCGGTC | -0.271
ACCGACTG | -0.0894
AACAAAAC | -0.0611
ATAACAGA | -0.0408
CCGGACGA | 0.0323
CCTTCAGA | 0.14
CACACGCG | 0.0832
ACGCAAGG | -0.0936
AGCGCTAG | -0.288

Sequence | PBM E-score
CTACCTCA | -0.107
CATGTCCG | -0.271
CCCGGGCA | 0.187
CTCGAATC | 0.0437
AGACCGGG | -0.0795
ACACAAGA | 0.264
CCATTAGA | 0.0419
ATCTAATG | 0.052
CTACATTA | -0.0323
CACAAACA | 0.044
AGAACACC | -0.038
ATGTTAGG | 0.0142
AGAAGTCT | -0.267
GAGATTCC | 0.363
AATCTTCC | -0.105
AGTTAGGG | -0.0291
CCCGTTCC | 0.0167
AAACTTAA | 0.0811
GAGTCCCA | 0.313
ATTACGAC | -0.0895
AGACATGG | -0.248
GTTTGTGA | -0.0265
CCGATAGG | 0.0042
AACTGAGC | -0.0384
ATCAATGG | 0.133

Sequence | PBM E-score
CGTCATGC | -0.214
AGACGTGA | -0.226
TTCGCAAA | 0.16
AACCCCTG | -0.167
ATCTAAAC | 0.0803
GCAACGAA | -0.13
AAGGTCTC | -0.175
AGAATATC | -0.0145
ACGAACGA | -0.0006
AGGAGAAT | 0.0732
AGTTGATC | 0.0518
ACTGCCAA | 0.0668
CAATCAGC | 0.0177
AGTTCATG | -0.0195
AACAGGTT | 0.201
AATTGATG | 0.136
ATGACGTC | -0.0147
CCCAGCGC | -0.0407
AATTGCAA | -0.0248
